± gives the standard deviation of the averaged measurements. In all, about 33,000 sequences were measured (“E-score (dimensionless, -0.5 to 0.5)”: median about -0.046, highest 2% from about 0.36 on). This is one part of the list.
Test system: T1, SpTbr T-box DNA-binding domain (GST fusion)
T1 sequence: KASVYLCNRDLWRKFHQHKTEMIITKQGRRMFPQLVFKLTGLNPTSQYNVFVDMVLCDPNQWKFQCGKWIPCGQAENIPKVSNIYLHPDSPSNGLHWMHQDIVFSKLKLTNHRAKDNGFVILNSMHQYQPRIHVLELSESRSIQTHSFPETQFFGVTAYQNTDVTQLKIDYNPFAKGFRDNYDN
Experiment: PBM E-score of 8-mer (E-score (dimensionless, -0.5 to 0.5)); Tbr is Tbrain of the sea star Patiria miniata (Pm) or the sea urchin Strongylocentrotus purpuratus (Sp); higher = stronger binding preference; most listed sequences are background and not binding sites
Conditions: the construct has about 5 more residues each side
Outline: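 Primer extension turned Universal Agilent oligonucleotide arrays double-stranded. They were incubated with 200 nM protein in PBS (pH 7.5); the protein was a GST-fused Tbr T-box DNA-binding domain expressed in BL21 E. coli at 20 °C and purified on glutathione. Every ungapped 8-mer was scored from the scanned, quantified probe intensities, and the Universal PBM Analysis Suite gave each an enrichment E-score averaged over duplicate arrays.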

Sequence | PBM E-score of 8-mer
CGGCAATC | 0.0352 ± 0.0047
TAGTAACA | 0.0927 ± 0.018
AAATTGTA | -0.163 ± 0.035
ACGAGTTA | 0.0864 ± 0.011
CCCCAAGA | -0.161 ± 0.021
GCAGCTTA | -0.0311 ± 0.018
CGCTATTC | 0.0952 ± 0.022
AATGCCTC | -0.2299 ± 0.0017
CAGCCGTC | -0.0313 ± 0.023
ATTGTATG | 0.0134 ± 0.0065
TAATTGCA | -0.0968 ± 0.049
ATACCGCC | 0.0935 ± 0.075
ATCTGGCC | -0.323 ± 0.059
GTCTTGTA | -0.157 ± 0.08
GTCTAGAC | -0.227 ± 0.049
CCTCCCAC | 0.167 ± 0.051
TAATGGTA | -0.0621 ± 0.066
CTTATGCA | -0.106 ± 0.0025
GTAAGTAC | 0.0781 ± 0.011
AGGTTCTC | 0.0974 ± 0.045
CTTCGGCA | 0.00492 ± 0.087
ACCAAATC | 0.0574 ± 0.025

Sequence | PBM E-score of 8-mer
AGATTACC | -0.264 ± 0.051
CCACCCAC | 0.166 ± 0.032
AGTGAGGC | 0.168 ± 0.0085
GCCTGCTA | -0.00335 ± 0.0067
AGCACGAA | -0.0432 ± 0.027
TCAAACGA | -0.0189 ± 0.061
GACATATA | -0.234 ± 0.017
CATTTTAC | 0.0366 ± 0.028
ATTCATTC | -0.192 ± 0.052
AGGCCCCT | -0.335 ± 0.05
TACTGCGA | 0.141 ± 0.02
CACGGACA | 0.1677 ± 0.00032
GAGACTTA | -0.152 ± 0.06
AGCCATAA | -0.0626 ± 0.052
AGACATCC | -0.203 ± 0.026
CTCCATGA | -0.24 ± 0.038
AAGCGTAA | -0.0333 ± 0.041
CCGTTGCA | -0.131 ± 0.064
ACGTGCAG | -0.0147 ± 0.021
CAATTGAA | -0.238 ± 0.011
GTTATGAA | -0.0569 ± 0.075
ACCTACCG | -0.0257 ± 0.0024

Sequence | PBM E-score of 8-mer
CGCTGAAG | -0.0583 ± 0.034
AACTCCTT | -0.11 ± 0.0082
GAGTCATC | -0.181 ± 0.013
CTGGATGC | -0.14 ± 0.091
ACCTCGCG | 0.325 ± 0.014
CTCTTTGA | -0.061 ± 0.03
GCCACCCA | 0.0264 ± 0.086
ATCAATTG | -0.00983 ± 0.05
ATGAAGGA | -0.2226 ± 0.0014
CCTGATGA | -0.0143 ± 0.035
AAGAATCG | -0.0227 ± 0.04
GACAACGC | 0.217 ± 0.013
ACTTCGTA | 0.0211 ± 0.065
AGCGTCAG | -0.0445 ± 0.1
ACTTACCC | 0.0548 ± 0.033
CCCACACA | 0.199 ± 0.038
ACGACCTG | 0.0367 ± 0.035
TAAGCCGA | -0.145 ± 0.03
AAGTGAGC | 0.134 ± 0.0044
GGGGATGA | -0.164 ± 0.0062
GTAAGCTA | -0.231 ± 0.081
CAAACAAC | -0.0156 ± 0.059

Sequence | PBM E-score of 8-mer
ATAAACCC | -0.22 ± 0.039
ACTTCTGA | 0.0261 ± 0.032
ACTACCTC | -0.1643 ± 0.00054
ATATGAAG | 0.0787 ± 0.013
CACTAGCC | 0.0158 ± 0.04
ATGTGCAA | 0.182 ± 0.095
CACAAAAA | 0.0846 ± 0.057
AAAGTTAG | 0.0626 ± 0.036
ATGTCGCC | 0.0362 ± 0.024
CATACCAG | 0.0148 ± 0.026
GCTGGTTA | -0.115 ± 0.072
AACAGCTC | 0.2132 ± 0.00089
GCGCCCCA | 0.0659 ± 0.033
TAAGTAAA | 0.0493 ± 0.044
AGGAAATG | -0.0384 ± 0.042
AACCGCCT | -0.126 ± 0.019
ACGATTAT | 0.00702 ± 0.073
AGCAGGTG | 0.377 ± 0.00094
CAGTTGCG | 0.255 ± 0.0065
AAGCTAAA | -0.0312 ± 0.054
